# Assay results from PubChem BioAssay AID1347073 (National Center for Advancing Translational Sciences (NCATS), 2019).
# Out of some 45,000 compounds screened, about 200 (0.44%) were called active. Not shown: some 7% with an inconclusive outcome. The call rests on the fitted dose curve; in most records, active means well fitted activation curve with a large enough effect; inconclusive means small, poorly fitted or top-dose-only effect; inactive means no such curve, though single readings can be large or run the other way. This is one part of the list.
# Experiment: qHTS of TDP-43 Inhibitors: NCGC Sytravon Library Screen; further: 0% is about no effect; nearly all actives have a fitted effect of over 55% in size
# Conditions: yeast TDP-43 toxicity rescue, BacTiter-Glo growth, 24 h; series mostly up to 46.1 µM; growth rescue (activation): at the top concentration
# How it was run: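 TDP-43-expressing yeast, pregrown in raffinose, seeded at OD600 0.02 in galactose medium with compound for 24 hr at 30 deg C. Growth read by BacTiter-Glo luminescence, so rescue of toxicity appears as activation.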
row,SMILES,growth rescue (activation)
1,CS(=O)(=O)c1ccc(C(=O)OCC(=O)NC(=O)C2CCCCC2)cc1[N+](=O)[O-],inactive: -9%
2,O=C(Cc1ccc(-n2c(=O)c3sccc3n(CC(=O)Nc3ccccc3)c2=O)cc1)NCc1ccco1,inactive: -8.35%
3,COc1ccc(CNC(=O)CCC(=O)N2CCN(C(C)=O)CC2)cc1,inactive: 8.37%
4,O=C(NCC1CCCCC1)c1ccc(=O)[nH]c1,inactive: 11.7%
5,Cc1c(C)n(CC(O)CN(CCO)CCO)c2ccccc12 (stereo not drawn),inactive: 5.44%
6,CC(=O)Nc1cc[n+](CC(=O)c2ccc(Cl)cc2)cc1,inactive: 7.45%
7,CC(NC(=O)COC(=O)CCC(=O)c1ccc(Cl)cc1)c1ccccc1 (stereo not drawn),inactive: 2.1%
8,COc1ccccc1N1CCN(C(=O)C2CC(=O)N(c3ccccc3)C2)CC1 (stereo not drawn),inactive: 13.3%
9,Cn1c(SCC(=O)NC2CCCCC2)nnc1-c1cccnc1,inactive: -10.5%
10,COc1ccc(CNC(=O)CN(C(=O)c2csnn2)c2cccc(C(C)=O)c2)cc1,inactive: -8.43%
11,C=CCNC(=O)/C(C#N)=C/c1cc(Br)ccc1OC,inactive: 42.3%
12,O=c1[nH]c(SCc2ccc(F)cc2Cl)nc2ccccc12,inactive: 13.4%
13,COc1ccc(C(N)=O)cc1NC(=O)c1cccc(F)c1,inactive: 0.519%
14,Cc1onc(-c2ccccc2)c1C(=O)Nc1cccc(S(=O)(=O)N2CCCCC2)c1,inactive: -1.25%
15,CN(c1ccc(OCC(=O)OCC(=O)Nc2c(F)c(F)c(F)c(F)c2F)cc1)S(=O)(=O)c1ccc(F)cc1,inactive: 18.3%
16,CCC(=O)N1CCc2cc(-c3csc(NC(=O)c4ccco4)n3)ccc21,inactive: 11.3%
17,Cn1c(SCC(=O)N/N=C/C=C\c2ccccc2[N+](=O)[O-])nc2ccccc21,inactive: -8.94%
18,Cc1ccc(C)c(CNC(=O)Nc2ccccc2)c1,inactive: 22.8%
19,Cc1ccc(OCC(=O)O/N=C(\N)c2ccncc2)cc1C,inactive: 24.8%
20,O=C(N/N=C/c1cccnc1)c1cccc(S(=O)(=O)N2CCCC2)c1,inactive: 2.03%
21,O=C(NC(O)C(=O)c1ccccc1)c1ccccn1 (stereo not drawn),inactive: 19.8%
22,C[C@]12CC[C@H](O)CC1=CCC1C2CC[C@@]2(C)C1CC[C@@H]2NC(=O)CCC(=O)O (stereo partly drawn),inactive: 11.8%

row,SMILES,growth rescue (activation)
1,O=C(NN1C(=O)C2C(c3ccccc3)C=CC(c3ccccc3)C2C1=O)c1cccc(Br)c1 (stereo not drawn),inactive: 13.7%
2,O=S(=O)(c1cccs1)N1CN(C2CCCC2)c2nc3ccccc3nc21,inactive: -6.25%
3,COc1cccc(-c2cc(C(=O)NCCCn3ccnc3)c3ccccc3n2)c1,inactive: -5.05%
4,Nc1nc(-c2ccco2)cs1,inactive: -6.26%
5,COCCNC(=O)c1cc2cc(Br)cc(Br)c2oc1=O,inactive: 7.17%
6,COc1ccc(NC(=O)CC2Oc3ccccc3NC2=O)c(OC)c1 (stereo not drawn),inactive: 7.63%
7,COc1cc(NC(=O)COc2ccccc2Cl)ccc1NC(=O)c1cccs1,inactive: -6.01%
8,CCn1c(O)c(C=NCCN2CCOCC2)sc1=S,inactive: -18.8%
9,O=C(/C=C/c1ccco1)N/C(=C\c1ccco1)C(=O)NCCc1nc2ccccc2[nH]1,inactive: 6.88%
10,CCCSc1ncc(Cl)c(C(=O)Nc2c(C(=O)c3ccc(C)cc3)oc3ccccc23)n1,inactive: 15.8%
11,COc1ccc(N(CC(=O)NCCC2=CCCCC2)S(=O)(=O)c2ccccc2F)cc1,inactive: 27.4%
12,Cc1cc(=O)n2c3ccccc3n(CC(O)CN3CCN(CCO)CC3)c2c1C#N (stereo not drawn),inactive: 10.2%
13,Cc1nn2c(-c3cccc(NC(=O)c4ccc(Cl)cc4)c3)nnc2c2ccccc12,inactive: -1.68%
14,O=C(/C=C/c1cccc(F)c1)OCC(=O)N1CCCC1,inactive: -53.5%
15,NS(=O)(=O)c1ccc(CCNC(=O)CN2CCN(Cc3cccc4ccccc34)CC2)cc1,inactive: 5.04%
16,Cc1ccc(NC(=S)N(CCCN2CCCC2)Cc2cccn2Cc2ccc(Cl)cc2)cc1Cl,inactive: -52.3%
17,CC(C)NC(=O)CN(Cc1ccc(F)cc1)C(=O)CCC(=O)Nc1nccs1,inactive: -11.5%
18,O=P(O)(Cc1ccccc1)Cc1ccccc1,inactive: -0.288%
19,CCCCOCc1cc(CN2CCN(c3cccc(Cl)c3)CC2)c(O)c2ncccc12,inactive: -68.2%
20,Cc1ccc(CNC(=O)c2ccccc2NC(=O)CN2CCN(C)CC2)cc1,inactive: 0.77%
21,CCOc1cc(N2CCOCC2)c(OCC)cc1NC(=O)CSc1ncccc1C(=O)O,inactive: 8.33%
22,CC(NC(=O)c1c(O)c2ccccc2n(C)c1=O)c1ccccc1 (stereo not drawn),inactive: -24%

row,SMILES,growth rescue (activation)
1,O=C(Cc1cccc(C(F)(F)F)c1)N1CCCC1,inactive: -18.8%
2,CN(C)c1ccc([C@@H]2[C@@H]([N+](=O)[O-])[C@H]3C=Cc4ccccc4N3[C@H]2C(=O)c2ccc(Cl)cc2)cc1,inactive: 0.309%
3,NS(=O)(=O)c1ccc(CNC(=O)/C=C/c2cccc([N+](=O)[O-])c2)cc1,inactive: 8.57%
4,Cc1cc(OC(C(=O)O)c2ccccc2)c2c(C)c(Cc3ccccc3)c(=O)oc2c1 (stereo not drawn),inactive: -2.9%
5,COCCNC(=O)C1CCCN(Cc2ccc(Cl)cc2)CC1 (stereo not drawn),inactive: 6.19%
6,COc1ccc(C(=O)Nc2ccc(N3CCN(C)CC3)cc2)cc1OC,inactive: 3.93%
7,COc1ccccc1N(C(=O)c1csnn1)C(C(=O)NC1CCCC1)c1ccccc1 (stereo not drawn),inactive: 9.08%
8,Clc1cccc(N2CCN(c3ncnc4nc[nH]c34)CC2)c1,inactive: 1.39%
9,COc1ccc(S(=O)(=O)N2CCN(C(=O)c3cc4c(s3)CCC4)CC2)cc1,inactive: 17.3%
10,CCOC(=O)Cc1csc(NC(=O)CSc2nc(C)cc(C)n2)n1,inactive: -0.3%
11,CCC(=C/c1sc2ccc3ccccc3c2[n+]1C)/C=C1\Sc2ccc3ccccc3c2N1C,inactive: -95.9%
12,COc1ccc(CCNC(=O)C2CCN(Cc3nc(-c4ccc(Cl)cc4)oc3C)CC2)cc1OC,inactive: -18.8%
13,O=c1cc(CN2CCN(Cc3ccccc3)CC2)c2ccc(O)cc2o1,inactive: 13.9%
14,CCNC(=O)C1(C)CCCN(C(=O)c2ccnc(Cl)c2)C1 (stereo not drawn),inactive: 2.38%
15,O=C(Cc1ccc(Cl)cc1Cl)NC1CCCCCC1,inactive: -33.1%
16,O=Cc1cn(CCC(=O)O)nc1-c1cccc(Br)c1,inactive: -6.57%
17,COc1ccc(CNC(=O)Cn2c(=O)oc3cc(S(=O)(=O)N4CCCC4)ccc32)cc1,inactive: 1.54%
18,CC(=O)c1cnc2cc(-c3cccc(Br)c3)nn2c1C,inactive: 15.1%
19,Cc1nnc(SCC(=O)N2CCN(S(=O)(=O)c3ccc(Cl)cc3)CC2)[nH]c1=O,inactive: 10.5%
20,Cn1c(N)c(C(=O)COC(=O)Cc2ccc(Cl)cc2Cl)c(=O)n(C)c1=O,inactive: 24.8%
21,O=C(NCCCN1CCOCC1)c1ccc(N2CCCC2)c([N+](=O)[O-])c1,inactive: 5.2%
22,COc1cccc(Nc2nc(-c3ccccc3)c3cc(C)ccc3n2)c1,inactive: 25.6%

row,SMILES,growth rescue (activation)
1,CCOC(=O)C1=C(NC(=S)NC(=O)c2ccccc2)c2ccccc2CC1(C)C,inactive: -14.4%
2,NNC(=O)CN(CCc1ccccc1)S(=O)(=O)c1ccc(Cl)cc1,inactive: 3.45%
3,CCCc1cc(C(=O)Nc2ccc(CC)cc2)no1,inactive: 17%
4,N/C(=N\OC(=O)c1cccs1)c1cccnc1,inactive: 22.2%
5,CCOc1cc(CNCc2ccccc2)ccc1OCc1ccc(Cl)cc1,inactive: 9.75%
6,CC(OC(=O)CNC(=O)c1ccco1)C(=O)N(C)c1ccccc1 (stereo not drawn),inactive: 1.13%
7,Cc1ccc(OCCN2CCC2(C)C(=O)NCc2cccc3ccccc23)cc1 (stereo not drawn),inactive: 8.21%
8,COc1cc(OC)cc(C(=O)N[C@H](C(=O)OCC(=O)Nc2ccc3c(c2)OCO3)C(C)C)c1,inactive: -12.4%
9,O=C(O)c1ccc(/C=N/Nc2ncc(C(F)(F)F)cc2Cl)cc1,inactive: 16.7%
10,CCSC(=Nc1ccccc1)Nc1ccccc1,inactive: -2.81%
11,CSc1ccc(C(=O)C2CCCN(C(=O)CCn3cncn3)C2)cc1 (stereo not drawn),inactive: -3.32%
12,CCN(CC)S(=O)(=O)c1ccc(/C=C/C(=O)NC2CCCCC2)cc1,inactive: 17.4%
13,Cn1c(=O)c2c(nc(N/N=C/c3cccs3)n2C)n(C)c1=O,inactive: -5.81%
14,COc1ccc(NS(=O)(=O)c2cc(NC(=O)c3cncc(Br)c3)ccc2OC)cc1,inactive: 34.2%
15,CCOC(=O)CNC(=O)c1ccc(Cl)s1,inactive: 14.6%
16,O=C(CNC1CCCCC1)NCC1(c2ccccc2)CCCC1,inactive: 5.32%
17,COc1ccc(C)cc1NS(=O)(=O)c1cccc2nonc12,inactive: 29.3%
18,COc1ccc(-c2ccc(=O)n(CC(=O)NCc3ccco3)n2)cc1,inactive: -4.17%
19,CCOc1ccc(CN2CCN(Cc3ccon3)CC2CCO)cc1 (stereo not drawn),inactive: 5.2%
20,O=C(C1CCC(CNS(=O)(=O)c2cccs2)CC1)N1CCN(c2ccc(F)cc2)CC1 (stereo not drawn),inactive: -6.05%
21,CCOC(=O)c1c(NC(=S)NC(C)=O)sc(C)c1C,inactive: 1.46%
22,Cc1ccc(S(=O)(=O)N2CCCCC2)cc1C(=O)NCc1ccccn1,inactive: 14%

row,SMILES,growth rescue (activation)
1,COc1ccc(CCC(=O)Nc2sccc2C#N)cc1,inactive: 4.07%
2,Cc1ccc2nc(Cl)c(/C=N/NC(=O)c3ccccc3O)cc2c1,inactive: 2.45%
3,O=C(Nc1c2c(nn1-c1ccc(F)cc1)CS(=O)C2)C12CC3CC(CC(C3)C1)C2 (stereo not drawn),inactive: -2.07%
4,O=C(Nc1nnc(-c2ccc(F)cc2)s1)c1ccco1,inactive: 9.28%
5,O=C(NC1CCCCC1)C1CCN(C(=O)c2ccc(Cl)cc2)CC1,inactive: 2.61%
6,CC(=O)Nc1cccc(NC(C)=C(C#N)C#N)c1,inactive: 16.5%
7,O=C1CCc2cc(S(=O)(=O)NC(Cc3ccccc3)C(=O)N3CCN(c4ccccn4)CC3)ccc2N1 (stereo not drawn),inactive: -28.6%
8,CCN(CC)C(=O)NC(c1ccc(C)c(F)c1)C(Cl)(Cl)Cl (stereo not drawn),inactive: 20.7%
9,CC1C(=O)C(C)C(c2cc(Br)ccc2O)NC1c1cc(Br)ccc1O (stereo not drawn),inactive: -21%
10,O=C(COC(=O)c1cnccn1)c1ccc(C2CCCCC2)cc1,inactive: 3.22%
11,OC(c1ccc(F)cc1)c1nc(-c2cccc(C(F)(F)F)c2)cs1 (stereo not drawn),inactive: -50.5%
12,COc1ccc(NC(=S)N2CCC(NC(=O)c3cccc(F)c3)CC2)cc1,inactive: -13.9%
13,Cc1ccc(OCC(=O)NCCCNC(=O)c2ccco2)cc1C,inactive: 9.61%
14,Cn1nnc(NC(=O)c2ccccc2F)n1,inactive: -10.5%
15,O=C(CSc1nc2ccccc2[nH]1)NC1CCCc2ccccc21 (stereo not drawn),inactive: 4.45%
16,CC(C)c1nc(SCC(=O)NC2CCCC2)c2ccccc2n1,inactive: 13.9%
17,O=c1[nH]c(CN2CCCCC2)nc2ccccc12,inactive: 21.9%
18,COc1ccc(NS(=O)(=O)c2cccc(C(=O)Nc3cccc(C(=O)O)c3)c2)cc1,inactive: -5.86%
19,O=C(Nn1c(C2CCC2)nc2ccccc2c1=O)c1cccs1,inactive: 3.46%
20,CCOC(=O)/C(=C\c1ccc(OC)c(OC)c1)C(=O)c1cccnc1,inactive: 16.4%
